The results in this text go back to ChEMBL document CHEMBL4888484, “Replenishing the malaria drug discovery pipeline: Screening and hit evaluation of the MMV Hit Generation Library 1 (HGL1) against asexual blood stage Plasmodium falciparum ,using a nano luciferase reporter read-out” (2022).

Screen size: about 150,000 compounds; about 540 (0.36%) showed an effect of 50% or more. Some of the results follow.

In the assay the test system is Plasmodium falciparum. The assay can be described thus: Primary screen in NF54 nanoGlo assay, in single point, at 2uM, 72h; a lower Z score goes with more inhibition. The note with it: timepoint 72 hour. The class given is functional, Erythrocyte.
Usually % Inhibition stands for the change of the read-out against control, counted positive when it falls. With `COc1nn(C)cc1CNC(=O)[C@H]1CCCN1C(=O)c1ccccc1`, the “% Inhibition” value is -3% and the Z score is listed as 0.39.
The matching figures for `CN(Cc1ncnn1C)C(=O)NCC1(c2cccs2)CCCCC1`: 33% and -4.71.
The corresponding values for `C=C(C)CN(CC)S(=O)(=O)c1ccc2c(c1)CCO2` are -7% and 0.62.
The matching figures for `N[C@H]1CCN(C(=O)CCOc2cc(Cl)cc(Cl)c2)C1`: -8% and 1.14.
Take `C[C@H]1CN(C(=O)CCc2nc3ccccc3s2)CCN1`: the “% Inhibition” value is on record as -3% and the Z score amounted to 0.47.
The matching figures for `COC(=O)c1ccc(C(C)C)c(NC(=O)CCc2cncn2C)c1`: -2% and 0.23.
The corresponding values for `COc1ccc(CNC(=O)Cc2cc(-c3ccccc3)on2)cc1` are -5% and 0.63.
In the case of `Cc1cc(C)n(CCc2nnc(NC(=O)NCc3ccc(C)o3)s2)n1`, the “% Inhibition” value was -2% and the Z score came to 0.27.
Turning to `NC(=O)Nc1cccc(NC(=O)C2CCCCC2c2nc3cc(Cl)ccc3[nH]2)c1` (stereo not drawn), the “% Inhibition” value is reported as -7% and the Z score is 0.68.
The corresponding values for `Cc1cc(C)c(C(=O)N2CCC(OCC3CCCC3)CC2)[nH]1` are -6% and 0.89.
The corresponding values for `COc1ccsc1S(=O)(=O)Nc1cnoc1-c1ccccc1` are -10% and 0.84.
The corresponding values for `CN(C1CC(C)(C)N(O)C(C)(C)C1)S(=O)(=O)CC12CCC(CC1=O)C2(C)C` (stereo not drawn) are -8% and 0.96.
Turning to `Cc1ccc(CNS(=O)(=O)c2cc(-c3onc(C)c3C)sc2C)cc1`, the “% Inhibition” value is reported as -7% and the Z score is recorded as 0.71.
Consider `C=CCn1c(=O)c2sc(N(CC)CC)nc2n(CC(=O)Nc2c(C)cccc2C)c1=O`, for which the “% Inhibition” value is given as -17% and the Z score is 1.46.
Regarding `CN1C(=O)[C@]2(CCN(C(=O)Cc3ccc(Cl)cc3)C2)c2ccccc21`, the “% Inhibition” value was -9% and the Z score is given as 1.18.
On to `Cc1ccc(CN2C(=O)COc3ccc(C(=O)Nc4nccs4)cc32)cc1`, for which the “% Inhibition” value is -8% and the Z score is reported as 1.01.
The matching figures for `CC(C)CCNC(=O)c1cn2c3c(cccc3c1=O)C[C@@H]2C`: 4% and -0.49.
The corresponding values for `O=C(NCc1nnc2n1CCOC2)[C@@H](O)C1CCCCCCC1` are -10% and 1.01.
The matching figures for `COc1ccc(F)cc1S(=O)(=O)N1CCC2(CC1)C[C@@H]2NC(=O)c1ccncc1`: -1% and 0.11.
As to `Cc1cc(-c2c(C)sc(C)c2S(=O)(=O)N2CCc3ccccc32)on1`, the “% Inhibition” value is given as -13% and the Z score was found to be 2.18.
The corresponding values for `C[C@H](OC(=O)c1ccc2nccnc2c1)C(=O)Nc1c(F)cccc1F` are 2% and -0.24.
For the compound `Cc1ccc2oc(CN3CCC[C@H](c4ccnn4CC(=O)O)C3)c(C)c2c1`, the “% Inhibition” value is 7% and the Z score is -1.14.
The corresponding values for `O=C(Nc1ccccc1)c1cc2nc(N3CCCCC3)sc2s1` are 5% and -0.79.
Turning to `CN(Cc1ccccc1)C(=O)C[C@@H]1CCNC[C@@H]1Cc1cc(CN(C)c2ccccc2)on1`, the “% Inhibition” value is given as 31% and the Z score is listed as -3.52.
The corresponding values for `CC[C@@H](CO)NCc1cccc(Cl)c1Cl` are -6% and 0.73.
The matching figures for `Cc1nccc(N2CC(Nc3cccc(C#N)c3)C2)n1`: 12% and -1.4.
The matching figures for `O=C(Nc1cccc(NC(=O)c2ccccc2)n1)c1ccccc1`: -8% and 0.99.
For `Cc1ccc(CNC(=O)CN2CCc3[nH]c4c(C)cc(C)cc4c(=O)c3C2)cc1`, the “% Inhibition” value is reported as 7% and the Z score is -0.78.
The matching figures for `Fc1ccc(-c2noc([C@@H]3CCCN3Cc3ncc[nH]3)n2)nc1`: -12% and 2.28.
The matching figures for `CC(C)c1nc([C@@H]2CCCCCN2C(=O)c2nc(C3CC3)n3ccccc23)no1`: -6% and 0.98.
The corresponding values for `CCCc1nsc(NC23CCC2CN(C(=O)c2ccon2)C3)n1` (stereo not drawn) are -13% and 1.42.
Take `CC[C@H]1C(=O)N(C)CCN1C(=O)c1cccnc1C`: the “% Inhibition” value worked out at 4% and the Z score was -0.83.
The matching figures for `CCC[C@H](NC(C)=O)C(=O)NCc1nc(C(F)(F)F)n[nH]1`: -4% and 0.65.
Turning to `CC(=O)Nc1nc(C(=O)Nc2cccnc2)cs1`, the “% Inhibition” value is on record as -3% and the Z score is 0.39.
The matching figures for `CCNC(=O)N1CC=C(C(=O)Nc2ccc(C)cc2)CC1`: -6% and 1.12.
The matching figures for `CN(C)c1ccnc(C(=O)N(Cc2ccncc2)Cc2cccnc2)c1`: -6% and 0.76.
The corresponding values for `Cc1cc(NC(=O)Cc2ccc(-c3ccccc3)cc2)n(-c2nc3c(c(=O)[nH]2)CCC3)n1` are -4% and 0.86.
Turning to `Cc1noc(C(C)C)c1NC(=O)c1c2ccccc2nn1C`, the “% Inhibition” value is on record as -3% and the Z score was determined as 0.38.
The matching figures for `COc1cccc2nnc(NC(=O)CCC(=O)NCc3ccc(F)c(Cl)c3)n12`: 7% and -1.04.
The corresponding values for `CC1CCCCC1NC(=O)CON=C(N)CN1CCOC(C)(C)C1` (stereo not drawn) are -6% and 1.09.
The matching figures for `c1ccc(Cn2cccn2)c(CN2CCCn3cncc3C2)c1`: -2% and 0.41.
For `COc1ccc2c(c1O)-c1ccccc1CCN(C)C2`, the “% Inhibition” value is reported as -3% and the Z score amounted to 0.38.
The matching figures for `O=C(Cc1cccnc1)N1CCC(n2c(=O)[nH]c3ccc(F)cc3c2=O)CC1`: -8% and 1.45.
The matching figures for `O=C(NCC1(c2ccc(Br)cc2Cl)CC1)N1CC[C@@]2(O)C[C@H]2C1`: -1% and 0.12.
The corresponding values for `C[C@]1(C(=O)Nc2cn[nH]c2)CCCN(C(=O)c2ccccc2)C1` are -8% and 1.66.
With `COc1cccc(CN2C[C@@H](F)[C@@H](OCc3nc4ccccc4o3)C2)c1`, the “% Inhibition” value worked out at 29% and the Z score is on record as -3.23.
The matching figures for `CCN(CC)C(=O)N1C[C@H](NC(=O)c2cn(C)c(=O)[nH]c2=O)[C@@H](C2CC2)C1`: 5% and -0.93.
With `CCOc1ccc(NC(=O)[C@@H]2Oc3ccccc3NC2=O)cc1`, the “% Inhibition” value was -13% and the Z score was found to be 1.55.
Regarding `COc1cc(NC(=O)c2ncoc2C(C)C)cc(-n2cnnn2)c1`, the “% Inhibition” value stood at 5% and the Z score was -1.
The matching figures for `CC(C)(C)c1nsc(N2CCO[C@H](c3nccs3)C2)n1`: -3% and 0.53.
As for `N#Cc1ccc(NCCc2cnn(-c3ccccc3)c2)nc1`, the “% Inhibition” value was -8% and the Z score turned out to be 0.82.
As for `Cc1cccnc1N1CCN(C(=O)c2ccc(-c3ccccc3)n2C)CC1`, the “% Inhibition” value is -10% and the Z score was 1.86.
The corresponding values for `CCS(=O)(=O)N1CCCC[C@H](c2ccccc2)C1` are -11% and 1.65.
On to `CN1CCN(C(=O)[C@H]2CCc3sc(C(=O)N4CCCCC4)cc3C2)CC1`, for which the “% Inhibition” value was 30% and the Z score was -3.39.
